Source: PubChem BioAssay AID1508624 (National Center for Advancing Translational Sciences (NCATS), 2021)
Hit rate of the full screen: of about 48,000 compounds, about 120 (0.25%) were called active. Not shown: some 4% with an inconclusive outcome. Calls follow the shape of the dose curve; as a rule, active = well fitted activation curve with a large enough effect; inconclusive = small, poorly fitted or top-dose-only effect, or another doubt; inactive = no such curve, though single readings can be large or run the other way. The list shows a part of the results.

assay: Primary qHTS for Identification of Small Molecule Activators of Huntingtin-Antisense Promoter Activity; conditions: HEK293 HTT-AS promoter firefly luciferase reporter, 24 h; series mostly up to 57.5 µM; activity change, positive = activation: at the top concentration; also: nearly all actives have a fitted effect of over 55% in size
Procedure, shortened: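 HEK293 luciferase promoter-reporter cells (2,500/well) plated 24 h, then compounds added at up to 57.5 uM final for 24 h at 37 °C. Firefly luminescence by Dual-Glo, normalized to vehicle (0%) and zero RLU (-100%).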

Activity change, positive = activation, inactive:
CCOc1ccc(NC(=O)NCc2c(-n3cccc3)sc3c2CCCC3)cc1 -3.69%
O=C(NCc1ccc2c(c1)CCN2C(=O)c1ccc(F)cc1)c1cc2ccccc2[nH]1 -6.52%
COc1ccc(-c2[nH]c3ccccc3c2SCCNC(=O)c2cc(OC)c(OC)c(OC)c2)cc1 -38.5%
COc1ccccc1CNC(=O)CCC(=O)N1CC2CCCN2c2ccccc21 (stereo unspecified) 1.52%
c1ccc(CNc2nc3c(-c4ccccc4)nnn3c3ccccc23)cc1 17.5%
COc1ccc(SCc2cc(=O)c3cc(Cl)ccc3[nH]2)cc1 -37.6%
Cc1cccc(C)c1OCCn1c(C2CC(=O)N(c3cccc(Cl)c3)C2)nc2ccccc21 (stereo unspecified) -53.6%
COc1cccc(NC(=O)C2CCCN(S(=O)(=O)c3c(C)nn(C)c3C)C2)c1 (stereo unspecified) -23.2%
O=C(Cc1ccc(Cl)cc1)Nc1ccc2nn(-c3ccc(Cl)cc3)nc2c1 0.497%
CCCC1=Nc2cc(C(=O)NC(C)c3ccccc3)ccc2Sc2ccc(C)cc21 (stereo unspecified) -28.9%
Cc1nn(C(=O)c2c(F)cccc2F)c(C)c1S(=O)(=O)N1CCOCC1 -7.32%
O=C(CCN1N=C(c2ccccc2)CCC1=O)NCCc1ccc(Cl)cc1 -15.2%
COc1ccc(CCNC(=O)c2ccc3c(c2)N(Cc2ccccc2F)C(=O)c2ccccc2S3(=O)=O)cc1OC 6.2%
O=C(NCCc1ccccc1)c1cc(S(=O)(=O)N2CCCCC2)c[nH]1 -23.3%
CCOC(=O)c1cnc2c(ccc3ccccc32)c1Nc1cccc(OC)c1 -17.6% [at 11.5 µM, percent change from vehicle, -100% = no light]
Cc1ccc(CN(Cc2ccco2)C(=O)COc2cc(C)c(Cl)c(C)c2)cc1 -27.3%
Cc1cccc(N2CCN(C(=O)c3cc4c(=O)oc5ccccc5c4s3)CC2)c1C -13.9%
Cc1cc(C(F)F)n2nc(C(=O)Nc3c(C)cccc3C)nc2n1 -2.25%
CCN(CC)c1cc(C)c2cc(NC(=O)c3ccccc3OC)ccc2n1 -3.04%
Cc1cc(C)c(NC(=O)CSc2ccc(-c3sc(-c4ccccc4)nc3C)nn2)c(C)c1 -7.63%
Cc1cc(C)c(NC(=O)CSc2nc3nc(C)cc(C)n3n2)c(C)c1 -15.3%
CCCCn1c(SCC(=O)NCCCOC)nc2c(sc3ccccc32)c1=O -5%
CCn1c(=O)c2sccc2n2c(CCCC(=O)N3CCN(c4cc(Cl)ccc4C)CC3)nnc12 6.32%
COc1ccc(-c2nnc(SCC(=O)NCc3ccc(C)cc3)nc2-c2ccc(OC)c(OC)c2)cc1OC -35.5%
O=C(CSc1nc(-c2ccc(F)cc2)[nH]c1-c1ccccc1)NCC1CCCO1 (stereo unspecified) -25.2%
COc1ccccc1N1CCN(c2ncccc2-c2nc(-c3ccc(Cl)cc3)no2)CC1 5.54%
CCCCOc1cccc(C2c3c(oc4ccccc4c3=O)C(=O)N2c2ccccn2)c1 (stereo unspecified) -13.5%
CCc1ccc(C(=O)c2cn(CC(=O)Nc3ccc(OC)c(OC)c3)c3ccc(C)cc3c2=O)cc1 -27.6%
CC1CCN(C(=O)CSc2nc(-c3ccccc3)no2)CC1 7.29%
COc1cc(C(=O)N2CCC(c3nc4ccccc4o3)CC2)cc(OC)c1OC -8.88%
Cc1c(NS(=O)(=O)c2ccccc2)cc(C(C)C)c(O)c1S(=O)(=O)c1ccc(Cl)cc1 -46.8%
COc1ccc(C(c2c(O)cc(C)n(Cc3ccco3)c2=O)N2CCCCC2)cc1OC (stereo unspecified) 5.98%
C(=C\c1ccccc1)/CN1CCN(C(c2ccccc2)c2ccccc2)CC1 -12.3%
CCN(CC)CC(=O)Oc1ccc(NC(C)=O)cc1 2.27%
COc1cc(Cl)c(C)cc1NC(=O)c1ccc2c(Cl)c3c(nc2c1)CCC3 8.95%
CCOc1cccc(CC(=O)N2CCc3c([nH]c4ccccc34)C2c2ccc(Cl)cc2)c1OCC (stereo unspecified) -13.3%
COc1ccc(S(=O)(=O)N2CCC(Oc3ccc(-n4cnnn4)cc3)CC2)cc1OC -33.8%
CCOc1ccc(C(=O)c2cn(Cc3ccccc3OC)c3ccc(F)cc3c2=O)cc1 -8.61%
Oc1c(C(c2ccccc2Cl)N2CCCC2)sc2nc(-c3ccco3)nn12 (stereo unspecified) -13.2%
CCOc1ccc(N(CC(=O)NCc2ccccc2Cl)S(=O)(=O)c2c(C)[nH]c(=O)[nH]c2=O)cc1 24.4% [at 11.5 µM, percent change from vehicle, -100% = no light]
CC(=O)Nc1ccc(NC(=O)CSc2nc3ccccc3nc2N2CCOCC2)cc1 -16.6%
CCc1ccc(NC(=O)CN(c2ccc(OC)cc2)S(=O)(=O)c2c(C)[nH]c(=O)[nH]c2=O)cc1 7.03% [at 11.5 µM, percent change from vehicle, -100% = no light]
COc1ccc(-n2c(CC3C(=O)N(C)c4ccc(C)cc43)nc3ccccc3c2=O)cc1 (stereo unspecified) -2.14%
COc1ccc(CCNc2ncnc3c2cnn3-c2ccc(C)cc2)cc1 -1.07%
CN1C(=O)c2ccccc2Sc2ccc(NC(=O)COc3ccc(F)cc3)cc21 -42.6%
Fc1ccc(CN2CCc3nc(Nc4ccccc4)ncc3C2)cc1F -11.7%
Cc1ccccc1C(=O)Nc1nnc(S(=O)(=O)N2c3ccccc3CC2C)s1 (stereo unspecified) -89.6%
O=C(NCc1ccco1)c1ccc2c(c1)N(Cc1cccc(Cl)c1)C(=O)c1ccccc1S2(=O)=O -22.3%
COc1ccc(-c2noc(CNC(=O)c3ccco3)n2)cc1 -6.41%
Cc1ccc(CNC(=O)CSc2cc(C)[nH]c(=O)n2)cc1 -8.47%
Cc1nn(-c2ccccc2)c2nc(C3CC3)cc(C(=O)Nc3ccccc3F)c12 -33.1%
Cc1cccc(NC(=O)CCc2c(C)nc3nc(CNC(=O)c4cccc(F)c4)nn3c2C)c1 -1.53%
Cc1oc(-c2ccccc2)nc1CCC(=O)c1ccc(CC2SC(=O)NC2=O)cc1 (stereo unspecified) -27.7%
COc1ccc(Cn2c(SCc3ccc(C(=O)NC4CCCC4)cc3)nc3cccnc32)cc1 -29.9%
COc1ccc(-c2noc(CSc3nnc(-c4ccncc4)n3-c3ccc(C)cc3)n2)cc1OC -10.6%
O=C(Cn1c(=O)n(Cc2ccc3c(c2)OCO3)c(=O)c2oc3ccccc3c21)Nc1ccc(F)cc1 -13.4%
CCOc1ccccc1NC(=O)c1c(NC(=O)c2ccccc2)sc2c1CCCC2 -15.1%
CCOc1ccccc1CNC(=O)c1cnc2sc(N3CCCCCC3)nn2c1=O -29.5%
O=C(Cn1cc(SCc2cccc(Cl)c2)c2ccccc21)N1CCCCCC1 -5.26%
CCc1ccc(Oc2c(C(F)(F)F)oc3c(CN4CCN(C)CC4)c(O)ccc3c2=O)cc1 -12.1%
CC(C)(C)c1ccc(-c2nc3cc(NC(=O)c4cccc(Br)c4)ccc3o2)cc1 -4.42%
CCc1ccc(S(=O)(=O)NCCc2csc3nc(-c4ccccc4)nn23)s1 -31%
COc1ccc(-n2ccn(CC(=O)NCCc3ccccc3)c(=O)c2=O)cc1OC 2.05%
O=C(NCCc1csc2nc(-c3ccc(F)cc3)nn12)c1cccc(C(F)(F)F)c1 -29.2%
COc1cccc(CNC(=O)Cn2ncc3c4ccccc4n(Cc4ccccc4)c3c2=O)c1 -2.17%
COc1ccccc1CN(Cc1ccco1)c1cnc(S(C)(=O)=O)nc1C(=O)Nc1cc(C)ccc1C -17.3%
COc1cccc(C(=O)NCc2nc(-c3ccccc3)no2)c1OC 0.0159% [at 11.5 µM, percent change from vehicle, -100% = no light]
O=S(=O)(O)c1ccc(O)cc1 -0.74%
Cc1ccc(C)c(NC(=O)c2ccc3nc(CCc4ccccc4)oc3c2)c1 17.5%
O=C(CSc1n[nH]c(-c2ccccc2Cl)n1)N1CCN(c2ccccc2)CC1 -9.85%
CCOC(=O)CNS(=O)(=O)c1cc(-c2nnc(Nc3cccc(O)c3)c3ccccc23)ccc1C -18.8%
CCCc1ccc(C2Sc3ccccc3NC3=C2C(=O)c2ccccc23)cc1 (stereo unspecified) -53.5%
C[C@@H]1CCO[C@H]2Cn3cc(C(=O)NCc4ccc(F)cc4F)c(=O)c(O)c3C(=O)N12 21.5%
Cc1cc(NC(=O)c2cccs2)cc(-c2nc3cc(Cl)ccc3o2)c1O -1.14%
CCn1cc2nc(SCC(=O)Nc3ccc(C)cc3C)n(Cc3ccc(C)cc3)c(=O)c2n1 -34.7%
CCC(=O)NCc1cc(-c2nn(C)c(=O)c3ccccc23)ccc1OC 0.351%
CC1CCCCN1C(=O)Cn1c(SCC(=O)N(C)c2ccccc2)nc2ccccc21 (stereo unspecified) 0.897%
CCn1cc(CNC(=O)c2cc(-c3ccc(C)c(C)c3)nc3ccccc23)c(C)n1 -17.4%
Cc1ccc(NC(=O)c2ccc(=O)n(CC(=O)Nc3cccc(C)c3)n2)cc1 -11.7%
O=C(C1CCCCC1)N1CC(=O)N2CCc3ccccc3C2C1 (stereo unspecified)
CCOc1ccccc1CNS(=O)(=O)c1ccc(-c2coc(C)n2)cc1 -33.5%
Cc1cccc(C(c2sc3nc(-c4ccco4)nn3c2O)N2CCN(c3ccccc3)CC2)c1 (stereo unspecified) -6.89%
COC(=O)c1ccccc1NC(=O)c1cc2nc(-c3ccc(OC)cc3)cc(C(F)(F)F)n2n1 -11.9%
Cc1ccc(NC(=O)c2ccc(NC(=O)N3CCSc4nc(C)cc(C)c43)cc2)c(Cl)c1 -25.5%
O=C(Cn1nc2c(cc1=O)CCCC2)Nc1ccccc1C(F)(F)F -8.1%
O=C(CSc1nc2c(oc3ccccc32)c(=O)n1-c1ccccc1F)Nc1ccccc1 -22.4%
OC[C@H]1O[C@H](O[C@]2(CCl)O[C@H](CCl)[C@@H](O)[C@@H]2O)[C@H](O)[C@@H](O)[C@H]1Cl 2.76%
Cc1ccc(CN2CCSc3ccc(C(=O)N4CCN(c5cc(C)ccc5C)CC4)cc32)cc1 -25.9%
CCOC(=O)c1c(S(=O)(=O)N2CCCC(C(=O)N3CCN(c4cccc(C)c4C)CC3)C2)c(C)n(C)c1C (stereo unspecified) -21.8%
CNC(=O)c1cc(Oc2ccc(NC(=O)Nc3cc(C(C)(C)C)nn3-c3ccc4ncccc4c3)c(F)c2)ccn1 -25%
CC(C)CN1CCc2nc(N3CCN(C)CC3)ncc2C1 -5.94%
